PubChem BioAssay AID624417 (National Center for Advancing Translational Sciences (NCATS), 2012)
Screen size: about 410,000 compounds; about 6,400 (1.6%) were called active. This list was built around the results that the source calls inconclusive (neither active nor inactive); the mix of calls is not that of the screen. The call rests on the fitted dose curve; in most records, active means well fitted inhibition curve with a large enough effect; inconclusive means small, poorly fitted or top-dose-only effect; inactive means no such curve, though single readings can be large or run the other way. Potencies of inconclusive entries are left out as doubtful fits.

What follows are compounds tested against Glucagon-like peptide 1 receptor (Homo sapiens) (UniProt P43220) (assay: qHTS of GLP-1 Receptor Inverse Agonists (Inhibition Mode)). Conditions: HEK293 GLP-1R CRE-luciferase, luminescence, 24 h, GLP-1R form is constitutively active; activity change, negative = inhibition: at 38.3 µM (top of the series) unless noted.
Sequence of UniProt P43220 (P43220 whole entry, looked up): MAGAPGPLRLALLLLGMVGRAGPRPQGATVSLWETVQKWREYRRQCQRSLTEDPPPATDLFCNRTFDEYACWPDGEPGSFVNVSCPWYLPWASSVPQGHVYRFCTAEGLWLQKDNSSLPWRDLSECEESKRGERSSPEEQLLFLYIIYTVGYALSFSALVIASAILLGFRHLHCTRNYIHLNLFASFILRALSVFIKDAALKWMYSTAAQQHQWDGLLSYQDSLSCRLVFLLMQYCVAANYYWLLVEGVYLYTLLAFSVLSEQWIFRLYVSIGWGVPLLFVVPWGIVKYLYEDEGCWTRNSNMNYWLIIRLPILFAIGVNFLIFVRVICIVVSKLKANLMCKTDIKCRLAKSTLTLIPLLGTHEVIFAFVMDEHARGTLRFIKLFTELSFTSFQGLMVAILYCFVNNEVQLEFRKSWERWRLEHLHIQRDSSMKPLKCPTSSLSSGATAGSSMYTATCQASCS
How it was run: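 Using stably transfected HEK293 (constitutively active GLP-1R, cAMP-luciferase reporter), compounds were incubated 24 hr and luciferase measured by luminescence.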
Further: nearly all actives have a fitted effect of over 55% in size.
On the % scale 0 is the no-effect control and ±100 the full control effect; potency means the concentration at half of the fitted maximal effect; tags describe the fitted curve by direction and shape.

Q: `COc1ccc(C(CNC(=O)Cc2ccc3ccccc3c2)N(C)C)cc1` (stereo unspecified) was tested. Which Potency did it give?
A: inconclusive [inhibitor, partial curve, poor fit]

Q: `Oc1ccccc1N1CCN(c2ncnc3scc(-c4ccc(F)cc4)c23)CC1` was tested. Which Potency did it give?
A: inconclusive [inhibitor, partial curve, poor fit]

Q: Which Potency does the source give for `CCOc1ccc2nc(Nc3nc4ccc(NC(C)=O)cc4s3)sc2c1` here?
A: inconclusive [inhibitor, single point]

Q: With `CCOC(=O)[C@]12CCCC=C1N(Cc1ccc3c(c1)OCO3)C(=O)[C@H](CC(=O)NCC1CCCCC1)C2` as the compound, how does the Potency read?
A: inconclusive [inhibitor, partial curve, poor fit]

Q: `O=C(CCN1CCN(c2ccccc2)CC1)N/N=C/c1ccccc1OC(F)F` was tested. Which Potency did it give?
A: inconclusive [inhibitor, partial curve, poor fit]

Q: With `COc1ccc(CC(=O)Nc2ccc(S(=O)(=O)N3CCC(C)CC3)cc2)c(OC)c1` as the compound, how does the Potency read?
A: inconclusive [inhibitor, single point]

Q: For `c1ccc2c(c1)Oc1ccccc1S2`, which Potency is on record?
A: inactive

Q: Which Potency does the source give for `CCCCC(C)Sc1nc2c([nH]1)c(=S)n(C)c(=O)n2C` (stereo unspecified) here?
A: inconclusive [inhibitor, full curve, poor fit]

Q: `COc1ccc(C(=O)Nc2cc(C)nn2-c2cccc(F)c2)cc1` was tested. Which Potency did it give?
A: inconclusive [inhibitor, partial curve]

Q: With `COC(=O)[C@]1(CC(C)C)N[C@H](c2ccc(-c3ccc(Cl)c(Cl)c3)cc2)[C@@H]2C(=O)N(C)C(=O)[C@@H]21` as the compound, how does the Potency read?
A: inconclusive [inhibitor, partial curve, poor fit]

Q: Which Potency does the source give for `COCCNC(=S)NC(=O)c1ccc(C(C)(C)C)cc1` here?
A: inconclusive [inhibitor, full curve, poor fit]

Q: How did the Potency turn out when `Cc1nn(C)cc1CN1CCCC(C(=O)c2ccc(-c3ccccc3)c(F)c2)C1` (stereo unspecified) was run?
A: inconclusive [inhibitor, partial curve, poor fit]

Q: With `O=C(NCCCn1ccnc1)c1ccc(S(=O)(=O)Nc2ccccc2)cc1` as the compound, how does the Potency read?
A: inconclusive [inhibitor, partial curve]

Q: For `CN(C)CC(NC(=O)c1cccc(S(=O)(=O)Nc2ccc3c(c2)OCO3)c1)c1ccccc1` (stereo unspecified), which Potency is on record?
A: inconclusive [inhibitor, partial curve, poor fit]

Q: For `CCc1nc2c(OCc3ccc(Cl)cc3)cccn2c1N(C)C(=O)c1cccs1`, which Potency is on record?
A: inconclusive [inhibitor, single point]

Q: How did the Potency turn out when `O=C(/C=C/c1ccccc1)NC(NC(=S)Nc1ccc(Cl)cc1Cl)C(Cl)(Cl)Cl` (stereo unspecified) was run?
A: inconclusive [inhibitor, partial curve, poor fit]

Q: How did the Potency turn out when `Cc1ccc(Nc2c(-c3ccsc3)nc3cccc(C)n23)cc1` was run?
A: inconclusive [inhibitor, partial curve, poor fit]

Q: How did the Potency turn out when `COc1cc2sc3ccc(C#CC4(O)CCCCC4)cc3c(=O)c2cc1OC` was run?
A: inconclusive [inhibitor, full curve]

Q: `COc1ccc(NC(=O)c2cccc(N3C(=O)c4ccc(C(=O)Nc5ccc(OC)c(O)c5)cc4C3=O)c2)cc1O` was tested. Which Potency did it give?
A: inactive

Q: For `O=C1NC(=S)N(C(=O)c2ccc(F)cc2)/C1=C/c1cccnc1`, which Potency is on record?
A: inactive

Q: How did the Potency turn out when `Cc1ccc(-n2ncc3c2CC(C)(C)CC3NC(=O)c2c(C)noc2C)cc1` (stereo unspecified) was run?
A: inconclusive [inhibitor, partial curve, poor fit]

Q: Which Potency does the source give for `COc1ccccc1N(CC(O)COc1ccccc1)S(=O)(=O)c1ccccc1` (stereo unspecified) here?
A: inconclusive [inhibitor, partial curve, poor fit]

Q: `CC(O)CNCCCOc1cccc(C(F)(F)F)c1` (stereo unspecified) was tested. Which Potency did it give?
A: inconclusive [inhibitor, partial curve, poor fit]

Q: How did the Potency turn out when `COc1ccc(NS(=O)(=O)c2cccc(NC(=O)c3ccc(S(=O)(=O)N4CCCCCC4)cc3)c2)cc1` was run?
A: active: 7.94 µM

Q: For `COc1ccc(C(C)(C)C)cc1NC(=O)Nc1ccc2c(c1)OCO2`, which Potency is on record?
A: inconclusive [inhibitor, full curve, poor fit]

Q: Which Potency does the source give for `CN(C)c1cc(NC(=O)CN2CCCC2)c2ccccc2n1` here?
A: inconclusive [inhibitor, single point]

Q: Which Potency does the source give for `O=C(NCc1ccc(F)cc1)C1CCCN(c2ncnc3onc(-c4ccc(F)cc4)c23)C1` (stereo unspecified) here?
A: inconclusive [inhibitor, single point]

Q: How did the Potency turn out when `Cc1c(Cl)cccc1NC(=S)Nc1ccc(S(=O)(=O)Nc2ncccn2)cc1` was run?
A: inactive

Q: `CCOc1ccccc1CNC(=O)c1ccc(-c2nc(CSc3ccc(C)cc3)c(C)o2)cc1` was tested. Which Potency did it give?
A: inactive

Q: Which Potency does the source give for `O=C(Nc1ccc(F)cc1F)N1CCCN(c2ccc(C(F)(F)F)cn2)CC1` here?
A: inconclusive [inhibitor, partial curve, poor fit]

Q: `CC(C)c1cc(NC(=O)C(C)(C)C)cc(C(C)C)c1O` was tested. Which Potency did it give?
A: inconclusive [inhibitor, single point]

Q: For `Cc1ccc(C2C3=C(NCCN=C3c3ccccc3)C(=O)N2c2ccccc2)cc1` (stereo unspecified), which Potency is on record?
A: inconclusive [inhibitor, single point]

Q: With `Cc1ccc(NC(=O)Cn2cnc3c(cnn3C(C)(C)C)c2=O)cc1` as the compound, how does the Potency read?
A: inconclusive [inhibitor, single point]

Q: `CN(CC(=O)Nc1ccc(F)cc1)C(=O)COc1ncnc2ccccc12` was tested. Which Potency did it give?
A: inactive

Q: With `COc1cccc(CC2(CO)CCN(C(=O)NCCc3ccccc3)CC2)c1` as the compound, how does the Potency read?
A: inconclusive [inhibitor, partial curve, poor fit]

Q: With `N#C/C(=C(/O)COC(=O)CCCNC(=O)c1ccc(Cl)cc1)c1nc2ccccc2[nH]1` as the compound, how does the Potency read?
A: inconclusive [inhibitor, partial curve, poor fit]

Q: `c1ccc(CCNCCCOc2cccc3ccccc23)cc1` was tested. Which Potency did it give?
A: inconclusive [inhibitor, partial curve, poor fit]

Q: With `Cc1ccc(Cl)c(NC(=O)COC(=O)c2cc[n+]([O-])cc2)c1Cl` as the compound, how does the Potency read?
A: inactive

Q: With `OC(CNCCc1ccc(Cl)cc1Cl)COc1ccccc1` (stereo unspecified) as the compound, how does the Potency read?
A: inconclusive [inhibitor, partial curve, poor fit]

Q: For `CCOC(=O)c1c(-c2ccccc2)nc2c(C)cccn12`, which Potency is on record?
A: inactive

Q: For `O=C(NC(=S)NC1CCCCC1)c1ccccc1[N+](=O)[O-]`, which Potency is on record?
A: inconclusive [inhibitor, partial curve, poor fit]

Q: `CCC1=Nc2cc(C(=O)NCc3ccccc3Cl)ccc2Sc2ccc(C)cc21` was tested. Which Potency did it give?
A: inconclusive [inhibitor, full curve, poor fit]

Q: For `CC(=O)C1C(c2cccc(Oc3ccccc3)c2)NC(=O)NC1(O)C(F)(F)F` (stereo unspecified), which Potency is on record?
A: inconclusive [inhibitor, single point]

Q: For `COc1ccc(OC)c(NC(=O)CSc2nc3n[nH]c(C)c3c(=N)n2-c2cccc(Cl)c2C)c1`, which Potency is on record?
A: inactive

Q: With `CN(CC(=O)Nc1cccc(F)c1)C(=O)c1ccccc1CCc1ccccc1` as the compound, how does the Potency read?
A: inconclusive [inhibitor, partial curve, poor fit]

Q: `O=C(NCCc1ccccc1)C(c1ccccc1F)N(C(=O)c1csnn1)C1CC1` (stereo unspecified) was tested. Which Potency did it give?
A: inconclusive [inhibitor, single point]

Q: Which Potency does the source give for `CN1CCN(CC(O)(c2ccc(Cl)cc2)c2ccc(Cl)cc2)CC1` here?
A: inconclusive [inhibitor, partial curve, poor fit]

Q: How did the Potency turn out when `COc1ccc(S(=O)(=O)N2CCN(CCOc3ccc(Br)cc3)CC2)cc1OC` was run?
A: inconclusive [inhibitor, single point]

Q: With `CC1(C)Cc2ccccc2C(/C(=N\Nc2cccc(Cl)c2)C(N)=O)=N1` as the compound, how does the Potency read?
A: inconclusive [inhibitor, partial curve, poor fit]

Q: How did the Potency turn out when `Cc1onc(-c2c(F)cccc2Cl)c1C(=O)NC(C)c1ccccc1` (stereo unspecified) was run?
A: inconclusive [inhibitor, single point]

Q: With `CC(C)CC(=O)NC(=S)Nc1ccccc1F` as the compound, how does the Potency read?
A: inconclusive [inhibitor, partial curve, poor fit]

Q: `COc1ccccc1OCCCOc1ccc(C)cc1Br` was tested. Which Potency did it give?
A: inconclusive [inhibitor, single point]

Q: With `O=S1(=O)C=C(Sc2nc3ccccc3s2)c2ccccc21` as the compound, how does the Potency read?
A: inconclusive [inhibitor, full curve, poor fit]

Q: `Cc1ccc(Nc2nnc(SCC(=O)c3c(N)n(C4CC4)c(=O)[nH]c3=O)s2)cc1C` was tested. Which Potency did it give?
A: inconclusive [inhibitor, single point]

Q: For `CC1=NOC(=O)/C1=C\c1ccc(-c2ccc(Br)cc2)o1`, which Potency is on record?
A: inconclusive [inhibitor, partial curve, poor fit]

Q: `Cc1ccc(CSCc2ccc(C(=O)NC3CC3)o2)cc1` was tested. Which Potency did it give?
A: inconclusive [inhibitor, single point]

Q: `CC(C(=O)NCC1CCCCC1)N(C)Cc1ccc(Cl)cc1` (stereo unspecified) was tested. Which Potency did it give?
A: inconclusive [inhibitor, single point]

Q: Which Potency does the source give for `Cc1ccc(S(=O)(=O)Nc2cccc(C(=O)NCc3cccnc3)c2)cc1F` here?
A: inconclusive [inhibitor, full curve, poor fit]

Q: For `CCN(CC)c1ccc(NC(=O)c2cc3c(OC)cccc3[nH]2)cc1`, which activity change, negative = inhibition is on record?
A: inconclusive: -58.5% [inhibitor]

Q: For `Cc1ccc(C)c(NC(=O)Cn2nnc(C(=O)NCCc3ccccc3)c2N)c1`, which Potency is on record?
A: inactive

Q: For `S=c1[nH]ccn1-c1c(Cl)cccc1Cl`, which Potency is on record?
A: inconclusive [inhibitor, partial curve, poor fit]
